These are yes or no findings as the source states them, for the method shown. Binding seen in cells or lysates may run through a third protein. Some results given as binding are weak or reduced against the parent protein; the word gives no strength. Sequences can lack the tags named with a protein.

The chains behind the UniProt entries cited, without tags or fusion partners.
UniProt Q96SW2: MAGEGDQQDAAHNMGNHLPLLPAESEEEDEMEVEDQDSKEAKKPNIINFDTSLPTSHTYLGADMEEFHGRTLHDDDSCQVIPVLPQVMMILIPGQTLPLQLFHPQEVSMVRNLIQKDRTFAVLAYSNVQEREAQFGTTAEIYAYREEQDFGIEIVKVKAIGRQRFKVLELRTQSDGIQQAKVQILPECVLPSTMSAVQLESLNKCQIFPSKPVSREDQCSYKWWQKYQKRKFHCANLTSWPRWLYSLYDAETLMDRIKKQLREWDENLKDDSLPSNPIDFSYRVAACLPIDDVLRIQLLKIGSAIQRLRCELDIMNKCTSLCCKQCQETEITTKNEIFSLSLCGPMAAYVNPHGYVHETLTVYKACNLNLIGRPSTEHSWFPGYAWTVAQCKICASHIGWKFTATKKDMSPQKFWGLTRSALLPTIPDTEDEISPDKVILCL

Assay [1] deals with T1, Myc-TAK1 1-300 (UniProt O43318).
T1 sequence: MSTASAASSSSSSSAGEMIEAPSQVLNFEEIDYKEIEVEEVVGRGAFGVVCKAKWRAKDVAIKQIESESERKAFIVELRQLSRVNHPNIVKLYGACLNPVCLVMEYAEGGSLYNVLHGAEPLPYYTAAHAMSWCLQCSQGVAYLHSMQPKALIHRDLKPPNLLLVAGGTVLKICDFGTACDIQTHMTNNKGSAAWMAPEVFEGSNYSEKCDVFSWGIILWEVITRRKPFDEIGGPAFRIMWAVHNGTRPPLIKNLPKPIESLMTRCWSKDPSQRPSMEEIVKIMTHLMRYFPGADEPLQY
The experiment in a line: co-IP; HEK293T cells co-transfected, extracted 38 h after transfection; immunoprecipitated with anti-Myc antibody, immunoblotted with anti-Flag or anti-Myc (Figure 3e-g).

Assay [2] concerns the target T2, Myc-TAK1 1-400 (UniProt O43318).
T2 sequence: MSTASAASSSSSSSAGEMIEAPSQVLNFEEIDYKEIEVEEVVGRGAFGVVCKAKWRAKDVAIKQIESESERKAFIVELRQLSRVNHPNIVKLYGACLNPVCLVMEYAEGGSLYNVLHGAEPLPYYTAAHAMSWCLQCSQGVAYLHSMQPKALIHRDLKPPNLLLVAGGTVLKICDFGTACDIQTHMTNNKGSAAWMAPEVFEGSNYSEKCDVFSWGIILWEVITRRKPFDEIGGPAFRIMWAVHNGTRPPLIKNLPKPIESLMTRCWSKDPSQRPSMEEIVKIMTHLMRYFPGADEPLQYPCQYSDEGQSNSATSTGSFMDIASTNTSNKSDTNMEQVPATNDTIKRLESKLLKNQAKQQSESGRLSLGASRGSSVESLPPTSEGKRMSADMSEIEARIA
The description is as above.

The target in assay [3] is T3, Myc-TAK1 1-500 (UniProt O43318).
T3 sequence: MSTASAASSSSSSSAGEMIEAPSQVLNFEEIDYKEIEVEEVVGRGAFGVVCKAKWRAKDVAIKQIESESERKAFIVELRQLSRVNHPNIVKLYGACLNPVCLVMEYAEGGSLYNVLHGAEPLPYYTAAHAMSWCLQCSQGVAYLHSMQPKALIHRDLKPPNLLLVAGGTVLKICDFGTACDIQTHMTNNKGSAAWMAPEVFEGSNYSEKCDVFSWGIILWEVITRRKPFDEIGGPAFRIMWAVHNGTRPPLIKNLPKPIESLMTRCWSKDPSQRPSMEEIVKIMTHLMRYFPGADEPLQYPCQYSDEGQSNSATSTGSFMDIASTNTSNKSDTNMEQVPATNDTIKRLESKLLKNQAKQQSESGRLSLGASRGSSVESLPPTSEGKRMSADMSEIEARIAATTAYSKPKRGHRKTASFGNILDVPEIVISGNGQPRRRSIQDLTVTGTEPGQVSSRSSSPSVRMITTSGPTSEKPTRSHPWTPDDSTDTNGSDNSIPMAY
Described as above.

The target of assay [4] is T4, Myc-tagged TAK1 wild type (UniProt O43318).
T4 sequence: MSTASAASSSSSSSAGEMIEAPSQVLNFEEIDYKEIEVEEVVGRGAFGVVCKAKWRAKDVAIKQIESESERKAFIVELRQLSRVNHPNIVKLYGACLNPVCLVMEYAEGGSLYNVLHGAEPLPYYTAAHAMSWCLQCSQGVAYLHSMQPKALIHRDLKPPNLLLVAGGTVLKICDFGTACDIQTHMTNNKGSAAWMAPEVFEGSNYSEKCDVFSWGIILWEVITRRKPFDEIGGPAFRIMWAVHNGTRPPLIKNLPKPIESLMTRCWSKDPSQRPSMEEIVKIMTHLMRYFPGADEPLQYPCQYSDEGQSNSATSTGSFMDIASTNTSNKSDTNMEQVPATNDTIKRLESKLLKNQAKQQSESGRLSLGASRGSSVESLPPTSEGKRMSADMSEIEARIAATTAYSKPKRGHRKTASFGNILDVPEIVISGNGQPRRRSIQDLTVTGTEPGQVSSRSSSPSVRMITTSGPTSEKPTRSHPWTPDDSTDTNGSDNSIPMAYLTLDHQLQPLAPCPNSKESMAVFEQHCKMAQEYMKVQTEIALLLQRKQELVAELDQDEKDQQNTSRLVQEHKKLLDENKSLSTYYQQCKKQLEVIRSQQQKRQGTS
The assay is described as above.

Assay [5] has as its target T4, Myc-tagged TAK1 wild type. The experiment in a line: co-IP; HEK293T cells co-transfected with Myc-TAK1 and Flag-TAB1 or Flag-TAB2 in the presence or absence of different concentrations of HA-CRBN, extracted 38 h after transfection; immunoprecipitated with anti-Myc, immunoblotted with anti-Flag, anti-HA or anti-Myc (Figure 3i,j). (In general: Immunoblotting shows a protein as a band on a membrane.)

In assay [6] the target is HA-tagged CRBN (Cereblon) (UniProt Q96SW2). The assay can be described thus: co-IP; HEK293T cells co-transfected, extracted 38 h after transfection; immunoprecipitated with anti-HA antibody, immunoblotted with anti-Flag or anti-HA (Figure 3c).

B1: Flag-tagged TAB1 (TAK1-binding protein 1) (protein, UniProt Q15750 1-504)
chain: MAAQRRSLLQSEQQPSWTDDLPLCHLSGVGSASNRSYSADGKGTESHPPEDSWLKFRSENNCFLYGVFNGYDGNRVTNFVAQRLSAELLLGQLNAEHAEADVRRVLLQAFDVVERSFLESIDDALAEKASLQSQLPEGVPQHQLPPQYQKILERLKTLEREISGGAMAVVAVLLNNKLYVANVGTNRALLCKSTVDGLQVTQLNVDHTTENEDELFRLSQLGLDAGKIKQVGIICGQESTRRIGDYKVKYGYTDIDLLSAAKSKPIIAEPEIHGAQPLDGVTGFLVLMSEGLYKALEAAHGPGQANQEIAAMIDTEFAKQTSLDAVAQAVVDRVKRIHSDTFASGGERARFCPRHEDMTLLVRNFGYPLGEMSQPTPSPAPAAGGRVYPVSVPYSSAQSTSKTSVTLSLVMPSQGQMVNGAHSASTLDEATPTLTNQSPTLTLQSTNTHTQSSSSSSDGGLFRSRPAHSLPPGEDGRVEPYVDFAEFYRLWSVDHGEQSVVTAP
Regarding B1, the binding entry in assay [1], in assay [2], in assay [3], in assay [4] and in assay [5] was “binds” each time.

B2: Flag-tagged TAK1 (transforming growth factor-beta-activated kinase 1) (protein, UniProt O43318 1-606)
chain: T4 sequence
B2: the binding entry in assay [6] is “binds”.

B3: Flag-tagged TAB2 (TAK1-binding protein 2) (protein, UniProt Q9NYJ8 1-693)
chain: MAQGSHQIDFQVLHDLRQKFPEVPEVVVSRCMLQNNNNLDACCAVLSQESTRYLYGEGDLNFSDDSGISGLRNHMTSLNLDLQSQNIYHHGREGSRMNGSRTLTHSISDGQLQGGQSNSELFQQEPQTAPAQVPQGFNVFGMSSSSGASNSAPHLGFHLGSKGTSSLSQQTPRFNPIMVTLAPNIQTGRNTPTSLHIHGVPPPVLNSPQGNSIYIRPYITTPGGTTRQTQQHSGWVSQFNPMNPQQVYQPSQPGPWTTCPASNPLSHTSSQQPNQQGHQTSHVYMPISSPTTSQPPTIHSSGSSQSSAHSQYNIQNISTGPRKNQIEIKLEPPQRNNSSKLRSSGPRTSSTSSSVNSQTLNRNQPTVYIAASPPNTDELMSRSQPKVYISANAATGDEQVMRNQPTLFISTNSGASAASRNMSGQVSMGPAFIHHHPPKSRAIGNNSATSPRVVVTQPNTKYTFKITVSPNKPPAVSPGVVSPTFELTNLLNHPDHYVETENIQHLTDPTLAHVDRISETRKLSMGSDDAAYTQALLVHQKARMERLQRELEIQKKKLDKLKSEVNEMENNLTRRRLKRSNSISQIPSLEEMQQLRSCNRQLQIDIDCLTKEIDLFQARGPHFNPSAIHNFYDNIGFVGPVPPKPKDQRSIIKTPKTQDTEDDEGAQWNCTACTFLNHPALIRCEQCEMPRHF
With B3, the binding entry in assay [6] is recorded as “no binding”; in assay [1] it was “no binding”; in assay [2], “no binding”; in assay [3], “no binding”; in assay [4], “binds”; in assay [5], “binds”.

The record behind these values is PMC4973362.
